Test results taken from PMC4336329 (PLoS ONE, 2015).
The whole screen tested about 310,000 compounds, of which about 2,200 (0.71%) showed an effect of 50% or more. The effect is printed as a negative number. The list shows a part of the results.

molecular target: human ether-à-go-go-related gene (hERG) potassium channel (human, UniProt Q12809); assay: primary screen, population patch clamp on CHO cells stably expressing hERG
Sequence (Q12809 whole entry, looked up): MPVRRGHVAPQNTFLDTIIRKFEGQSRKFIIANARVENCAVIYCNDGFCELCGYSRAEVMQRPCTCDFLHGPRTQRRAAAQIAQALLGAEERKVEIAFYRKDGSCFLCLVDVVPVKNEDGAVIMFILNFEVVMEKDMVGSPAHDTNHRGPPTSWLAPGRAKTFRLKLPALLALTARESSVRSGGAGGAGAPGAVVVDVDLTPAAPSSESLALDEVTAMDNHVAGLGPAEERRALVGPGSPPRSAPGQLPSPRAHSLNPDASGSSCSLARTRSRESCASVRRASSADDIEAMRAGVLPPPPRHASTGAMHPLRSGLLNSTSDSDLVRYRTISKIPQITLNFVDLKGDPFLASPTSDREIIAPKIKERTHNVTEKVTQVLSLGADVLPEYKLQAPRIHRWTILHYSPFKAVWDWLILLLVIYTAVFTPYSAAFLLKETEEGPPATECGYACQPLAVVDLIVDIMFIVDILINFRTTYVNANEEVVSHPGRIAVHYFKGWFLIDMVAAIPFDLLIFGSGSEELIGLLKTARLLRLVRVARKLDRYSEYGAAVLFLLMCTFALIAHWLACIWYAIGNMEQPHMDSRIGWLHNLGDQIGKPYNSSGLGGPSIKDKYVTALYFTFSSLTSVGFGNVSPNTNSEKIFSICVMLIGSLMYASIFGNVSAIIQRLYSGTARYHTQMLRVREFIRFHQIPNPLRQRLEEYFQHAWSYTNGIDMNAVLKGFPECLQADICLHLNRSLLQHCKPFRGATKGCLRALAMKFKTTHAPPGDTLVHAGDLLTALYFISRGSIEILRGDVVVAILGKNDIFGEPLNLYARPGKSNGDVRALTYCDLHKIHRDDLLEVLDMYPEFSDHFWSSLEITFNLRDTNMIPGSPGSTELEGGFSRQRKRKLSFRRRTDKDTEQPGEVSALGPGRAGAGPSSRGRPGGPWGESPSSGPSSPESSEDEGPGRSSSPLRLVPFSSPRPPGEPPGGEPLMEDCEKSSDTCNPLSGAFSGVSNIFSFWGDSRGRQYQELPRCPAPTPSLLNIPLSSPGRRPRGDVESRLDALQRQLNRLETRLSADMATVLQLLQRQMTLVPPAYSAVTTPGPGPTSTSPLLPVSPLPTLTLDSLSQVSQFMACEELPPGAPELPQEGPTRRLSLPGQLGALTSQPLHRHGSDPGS

Row | Structure (SMILES) | hERG current change (%, negative = inhibition) at 1uM [%]
1 | O=C(NNc1ccccc1C(F)(F)F)c1sccc1Br | 13.4
2 | OC[C@H](O)[C@H](O)[C@@H](O)[C@@H](O)[C@@H]1SC(c2ccccc2)=NN1c1ccccc1 | 9.58
3 | CC(C)[C@@H](CO)NC(=O)c1ccc2c3n(nc2c1)-c1ccc(Cl)cc1CO3 | 5.84
4 | Cc1cc2cc(C)c(NCCNC(=O)c3cccc(F)c3)nc2cc1C | 13.5
5 | COc1cccc(Cn2cccc(NC(=O)Nc3cccc(C#N)c3)c2=O)c1 | 8.57
6 | S=C(NC1CC1)N1CCN(c2ccc(Cl)cc2)CC1 | 10.2
7 | CC(=O)N[C@@H](Cc1c[nH]c2ccccc12)C(=O)OCC(=O)Nc1ccc(Cl)c(S(=O)(=O)N(C)C)c1 | 6.7
8 | CCOC(=O)C(C(=O)OCC)C1CCS(=O)(=O)C1 (centres unmarked) | 13.8
9 | CC1CC(C)CN(C(=O)C2CCCN(S(=O)(=O)c3cccc4nonc34)C2)C1 (centres unmarked) | 0.606
10 | N#Cc1nc(-c2ccc(OCc3ccccc3)cc2)oc1NCCCN1CCOCC1 | 17.2
11 | O=C1c2ccccc2C(=O)N1CCCCSc1nnnn1-c1ccccc1 | -19.8
12 | Cl.Oc1ccc(C2NCc3ccccc3-n3cccc32)cc1Cl (centres unmarked) | -0.359
13 | COCCN(C(=O)COC(=O)c1cc2ccccc2cc1O)c1c(N)n(Cc2ccccc2)c(=O)[nH]c1=O | 1.18
14 | O=C(O)c1ccc(N/N=C/c2cccc(C(F)(F)F)c2)cc1 | 16.7
15 | Cc1cccc(C(=O)Nc2ccccc2C(=O)Nc2ccc(C(=O)O)cc2)c1 | 19.9
16 | CCOC(=O)N1CCN(c2nnnn2-c2ccccc2)CC1 | 5.83
17 | Cc1cc(C)nc(SCC(=O)Nc2ncc(Cc3cccc(Cl)c3Cl)s2)n1 | 10.4
18 | COC(=O)NNC(=O)COc1ccc2ccccc2c1Br | 8.65
19 | COc1ccc(OC)c(CCNC(=O)CCC(=O)N2CCOc3ccc(C)cc32)c1 | -6.5
20 | COc1ccc(OC)c(NC(=O)CSc2nnc(CNc3ccc(C)cc3C)o2)c1 | 13.5
21 | CC(/C=C/c1ccc2c(c1)OCO2)=N\NC(=O)COc1ccccc1C | -11.9
22 | COc1ccc(C(=O)OCc2c(F)cccc2Cl)cc1S(=O)(=O)N1CCOCC1 | 6.64

Row | Structure (SMILES) | hERG current change (%, negative = inhibition) at 1uM [%]
23 | O=S(=O)(/N=C(/c1ccccc1)N1CCOCC1)c1ccc(Br)cc1 | 8.5
24 | CCC(=O)N1CCc2cc(S(=O)(=O)NCCC(=O)NC3CCCc4ccccc43)ccc21 (centres unmarked) | 10.3
25 | O=c1[nH]c(=O)n(-c2cccc(Cl)c2)c(O)c1/C=N/c1ccccn1 | 16.8
26 | C#CCSc1nc2sc3c(c2c(=O)n1C)CCC3 | 3.53
27 | CCSc1nnc(NC(NC(C)=O)(C(F)(F)F)C(F)(F)F)s1 | 23.6
28 | C(=N\Nc1nc2ccccc2s1)/c1ccccn1 | 8.31
29 | Cc1ccc(CNC(=O)C2CCCN(c3nc(C)cc(C)n3)C2)cc1 (centres unmarked) | 10.7
30 | CCC(=O)Nc1nnc(S(=O)(=O)N2c3ccccc3CC2C)s1 (centres unmarked) | 10.6
31 | Cc1ccc2cc(CCNS(=O)(=O)c3ccc(Cl)cc3)c(=O)[nH]c2c1C | 13.8
32 | Cc1ccc(N2CCN(C3=NC(=O)C(Cc4ccccc4)S3)CC2)cc1 (centres unmarked) | -1.41
33 | CC1CCN(C(=O)c2[nH]cnc2C(=O)NCC(=O)OCc2ccccc2)CC1 | -2.81
34 | COc1cc(C2SCC(=O)N2c2c(C)n(C)n(-c3ccccc3)c2=O)ccc1O (centres unmarked) | -2.21
35 | O=C(NCc1ccccn1)C1CCC(CNS(=O)(=O)c2cccc3nsnc23)CC1 (centres unmarked) | 1.37
36 | Cc1ccc2nc(-c3ccc(NC(=O)C4CCCO4)cc3)[nH]c2c1 (centres unmarked) | -9.2
37 | Cc1cccc2c(=O)n3c(nc12)CCCCC3 | 10.5
38 | CC(C)CN(CCCNC(=O)CN1C(=O)COc2ccc(S(=O)(=O)N3CCCCCC3)cc21)CC(C)C | -4.22
39 | Cn1c(=O)[nH]c(=O)c2c1nc(Br)n2CC(O)COc1ccc(Cl)cc1 (centres unmarked) | -23.7
40 | COc1ccc(C)cc1NC(=O)NCCCCc1ccccc1 | 0.664
41 | O=C1C(Cl)=C(NC2CCCCC2)C(=O)N1Cc1ccccc1 | 16.5
42 | CCn1c(=NC(=O)CSC(C)=O)sc2ccccc21 | 5.86
43 | COc1ccc(C(=O)NCCCCCC(=O)N/N=C/c2ccco2)cc1OC | 19.8
44 | CCOC(=O)C1C(c2cccs2)NC(=O)NC1(O)C(F)(F)F (centres unmarked) | 12.7
